# Laboratory results published in the supplement of paper PMC8728848.
# The list shows a part of the results.
# B1: Gal 8 (Mus musculus), Q9JL15 (protein)
# chain: MGGSHHHHHHGMASMLSLNNLQNIIYNPIIPYVGTITEQLKPGSLIVIRGHVPKDSERFQVDFQLGNSLKPRADVAFHFNPHFKRSSCIVCNTLTQEKWGWEEITYDMPFRKEKSFEIVFMVLKNKFQVAVNGRHVLLYAHRISPEQIDTVGIYGKVNIHSIGFRFSSASALPHTLGDLQSMETSALGLTQINRENIQKPGKLQLSLPFEARLNASMGPGRTVVIKGEVNTNARSFNVDLVAGKTRDIALHLNPHLNVKAFVRNSFLQDAWGEEERNITCFPFSSGMYFEMIIYCDVREFKVAINGVHSLEYKHRFKDLSSIDTLSVDGDIRLLDVRSW
# What was measured:
# Test in all cases: glycan array binding signal (z-score within array); higher = stronger binding
# Conditions in all cases: glycan notation: IUPAC condensed, linker removed; mutation: R82H, R255H
# [1] = target: Gal(b1-3)[Fuc(a1-4)]GlcNAc(b1-3)Gal(b1-4)[Fuc(a1-3)]GlcNAc
# How it was run: (§1)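 Glycan array data came from 3228 arrays in the Consortium for Functional Glycomics database, and only arrays with an available protein sequence were kept. Glycan names were put into IUPAC-condensed notation, and columns mapping to the same glycan were averaged. The binding signal is a within-array Z-score, averaged across arrays of one protein sequence run at different concentrations or buffers and across linkers. A negative Z-score can be read as non-binding.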
# [2] = target: Gal(b1-3)[Fuc(a1-4)]GlcNAc(b1-6)GalNAc
# How it was run: as §1
# [3] = target: Gal(b1-3)[GlcNAc(b1-6)]GalNAc
# How it was run: as §1
# [4] = target: Gal(b1-3)[Neu5Ac(a2-6)]GalNAc
# How it was run: as §1
# [5] = target: Gal(b1-3)[Neu5Ac(a2-6)]GlcNAc(b1-4)Gal(b1-4)Glc
# How it was run: as §1
# [6] = target: Gal(b1-3)[Neu5Ac(b2-6)]GalNAc
# How it was run: as §1
# [7] = target: Gal(b1-4)Gal
# How it was run: as §1
# [8] = target: Gal(b1-4)GalNAc(a1-3)[Fuc(a1-2)]Gal(b1-4)GlcNAc
# How it was run: as §1
# [9] = target: Gal(b1-4)GalNAc(b1-3)[Fuc(a1-2)]Gal(b1-4)GlcNAc
# How it was run: as §1
# [10] = target: Gal(b1-4)Glc
# How it was run: as §1
# [11] = target: Gal(b1-4)Glc6S
# How it was run: as §1
# [12] = target: Gal(b1-4)GlcNAc
# How it was run: as §1
# [13] = target: Gal(b1-4)GlcNAc(a1-6)Gal(b1-4)GlcNAc
# How it was run: as §1
# [14] = target: Gal(b1-4)GlcNAc(b1-2)Man
# How it was run: as §1
# [15] = target: Gal(b1-4)GlcNAc(b1-2)Man(a1-3)Man(b1-4)GlcNAc(b1-4)GlcNAc
# How it was run: as §1
# [16] = target: Gal(b1-4)GlcNAc(b1-2)Man(a1-3)[Gal(b1-4)GlcNAc(b1-2)Man(a1-6)]Man(b1-4)GlcNAc(b1-4)GlcNAc
# How it was run: as §1
# [17] = target: Gal(b1-4)GlcNAc(b1-2)Man(a1-3)[Gal(b1-4)GlcNAc(b1-2)Man(a1-6)]Man(b1-4)GlcNAc(b1-4)[Fuc(a1-6)]GlcNAc
# How it was run: as §1
# [18] = target: Gal(b1-4)GlcNAc(b1-2)Man(a1-3)[Gal(b1-4)GlcNAc(b1-2)Man(a1-6)][Gal(b1-4)GlcNAc(b1-4)]Man(b1-4)GlcNAc(b1-4)[Fuc(a1-6)]GlcNAc
# How it was run: as §1
# [19] = target: Gal(b1-4)GlcNAc(b1-2)Man(a1-3)[Gal(b1-4)GlcNAc(b1-2)Man(a1-6)][GlcNAc(b1-4)]Man(b1-4)GlcNAc(b1-4)[Fuc(a1-6)]GlcNAc
# How it was run: as §1
# [20] = target: Gal(b1-4)GlcNAc(b1-2)Man(a1-3)[GlcNAc(b1-2)Man(a1-6)]Man(b1-4)GlcNAc(b1-4)GlcNAc
# How it was run: as §1
# [21] = target: Gal(b1-4)GlcNAc(b1-2)Man(a1-3)[GlcNAc(b1-4)][Gal(b1-4)GlcNAc(b1-2)Man(a1-6)]Man(b1-4)GlcNAc(b1-4)GlcNAc
# How it was run: as §1
# [22] = target: Gal(b1-4)GlcNAc(b1-2)Man(a1-3)[Man(a1-6)]Man(b1-4)GlcNAc(b1-4)GlcNAc
# How it was run: as §1
# [23] = target: Gal(b1-4)GlcNAc(b1-2)Man(a1-6)Man(b1-4)GlcNAc(b1-4)GlcNAc
# How it was run: as §1
# [24] = target: Gal(b1-4)GlcNAc(b1-2)Man(a1-6)[GlcNAc(b1-2)Man(a1-3)]Man(b1-4)GlcNAc(b1-4)GlcNAc
# How it was run: as §1
# [25] = target: Gal(b1-4)GlcNAc(b1-2)Man(a1-6)[Man(a1-3)]Man(b1-4)GlcNAc(b1-4)GlcNAc
# How it was run: as §1
# [26] = target: Gal(b1-4)GlcNAc(b1-2)[Gal(b1-4)GlcNAc(b1-4)]Man(a1-3)[Gal(b1-4)GlcNAc(b1-2)Man(a1-6)]Man(b1-4)GlcNAc(b1-4)GlcNAc
# How it was run: as §1
# [27] = target: Gal(b1-4)GlcNAc(b1-2)[Gal(b1-4)GlcNAc(b1-4)]Man(a1-3)[Gal(b1-4)GlcNAc(b1-2)[Gal(b1-4)GlcNAc(b1-6)]Man(a1-6)]Man(b1-4)GlcNAc(b1-4)GlcNAc
# How it was run: as §1
# [28] = target: Gal(b1-4)GlcNAc(b1-2)[Gal(b1-4)GlcNAc(b1-4)]Man(a1-3)[GlcNAc(b1-4)][Gal(b1-4)GlcNAc(b1-2)Man(a1-6)]Man(b1-4)GlcNAc(b1-4)GlcNAc
# How it was run: as §1
# [29] = target: Gal(b1-4)GlcNAc(b1-2)[Gal(b1-4)GlcNAc(b1-4)]Man(a1-3)[GlcNAc(b1-4)][Gal(b1-4)GlcNAc(b1-2)[Gal(b1-4)GlcNAc(b1-6)]Man(a1-6)]Man(b1-4)GlcNAc(b1-4)GlcNAc
# How it was run: as §1
# [30] = target: Gal(b1-4)GlcNAc(b1-2)[Gal(b1-4)GlcNAc(b1-6)]Man(a1-6)[Gal(b1-4)GlcNAc(b1-2)Man(a1-3)]Man(b1-4)GlcNAc(b1-4)GlcNAc
# How it was run: as §1
# [31] = target: Gal(b1-4)GlcNAc(b1-2)[Gal(b1-4)GlcNAc(b1-6)]Man(a1-6)[Gal(b1-4)GlcNAc(b1-2)Man(a1-3)]Man(b1-4)GlcNAc(b1-4)[Fuc(a1-6)]GlcNAc
# How it was run: as §1
# [32] = target: Gal(b1-4)GlcNAc(b1-2)[Gal(b1-4)GlcNAc(b1-6)]Man(a1-6)[GlcNAc(b1-4)][Gal(b1-4)GlcNAc(b1-2)Man(a1-3)]Man(b1-4)GlcNAc(b1-4)GlcNAc
# How it was run: as §1
# [33] = target: Gal(b1-4)GlcNAc(b1-2)[Gal(b1-4)GlcNAc(b1-6)]Man(a1-6)[GlcNAc(b1-4)][Gal(b1-4)GlcNAc(b1-2)[Gal(b1-4)GlcNAc(b1-4)]Man(a1-3)]Man(b1-4)GlcNAc(b1-4)[Fuc(a1-6)]GlcNAc
# How it was run: as §1
# [34] = target: Gal(b1-4)GlcNAc(b1-3)Gal(b1-3)GalNAc
# How it was run: as §1
# [35] = target: Gal(b1-4)GlcNAc(b1-3)Gal(b1-3)GlcNAc
# How it was run: as §1
# [36] = target: Gal(b1-4)GlcNAc(b1-3)Gal(b1-4)Glc
# How it was run: as §1
# [37] = target: Gal(b1-4)GlcNAc(b1-3)Gal(b1-4)GlcNAc
# How it was run: as §1
# [38] = target: Gal(b1-4)GlcNAc(b1-3)Gal(b1-4)GlcNAc(b1-2)Man(a1-3)[Gal(b1-4)GlcNAc(b1-3)Gal(b1-4)GlcNAc(b1-2)Man(a1-6)]Man(b1-4)GlcNAc(b1-4)GlcNAc
# How it was run: as §1
binder,measurement,setting,value
B1,glycan array binding signal (z-score),[1],-0.277
same,glycan array binding signal (z-score),[2],-0.243
same,glycan array binding signal (z-score),[3],-0.245
same,glycan array binding signal (z-score),[4],-0.248
same,glycan array binding signal (z-score),[5],-0.272
same,glycan array binding signal (z-score),[6],-0.258
same,glycan array binding signal (z-score),[7],-0.238
same,glycan array binding signal (z-score),[8],-0.274
same,glycan array binding signal (z-score),[9],-0.275
same,glycan array binding signal (z-score),[10],-0.231
same,glycan array binding signal (z-score),[11],-0.26
same,glycan array binding signal (z-score),[12],-0.237
same,glycan array binding signal (z-score),[13],-0.278
same,glycan array binding signal (z-score),[14],-0.197
same,glycan array binding signal (z-score),[15],-0.256
same,glycan array binding signal (z-score),[16],-0.292
same,glycan array binding signal (z-score),[17],-0.229
same,glycan array binding signal (z-score),[18],-0.26
same,glycan array binding signal (z-score),[19],-0.281
same,glycan array binding signal (z-score),[20],-0.274
same,glycan array binding signal (z-score),[21],-0.278
same,glycan array binding signal (z-score),[22],-0.243
same,glycan array binding signal (z-score),[23],-0.259
same,glycan array binding signal (z-score),[24],-0.276
same,glycan array binding signal (z-score),[25],-0.273
same,glycan array binding signal (z-score),[26],-0.275
same,glycan array binding signal (z-score),[27],-0.286
same,glycan array binding signal (z-score),[28],-0.271
same,glycan array binding signal (z-score),[29],-0.268
same,glycan array binding signal (z-score),[30],-0.272
same,glycan array binding signal (z-score),[31],-0.256
same,glycan array binding signal (z-score),[32],-0.28
same,glycan array binding signal (z-score),[33],-0.267
same,glycan array binding signal (z-score),[34],-0.251
same,glycan array binding signal (z-score),[35],-0.241
same,glycan array binding signal (z-score),[36],-0.231
same,glycan array binding signal (z-score),[37],-0.311
same,glycan array binding signal (z-score),[38],0.454
